Reference: article PMC9124243 (Cell chemical biology, 2021)

Target: Mtb DnaK with and without cofactors (Mycobacterium tuberculosis, UniProt P9WMJ9)
Format: biochemical
Conditions: for inhibition of ATPase activation: 50 μM compound, equimolar DnaK:GrpE, sub-stoichiometric DnaJ2

Sequence of UniProt P9WMJ9 (P9WMJ9 whole entry): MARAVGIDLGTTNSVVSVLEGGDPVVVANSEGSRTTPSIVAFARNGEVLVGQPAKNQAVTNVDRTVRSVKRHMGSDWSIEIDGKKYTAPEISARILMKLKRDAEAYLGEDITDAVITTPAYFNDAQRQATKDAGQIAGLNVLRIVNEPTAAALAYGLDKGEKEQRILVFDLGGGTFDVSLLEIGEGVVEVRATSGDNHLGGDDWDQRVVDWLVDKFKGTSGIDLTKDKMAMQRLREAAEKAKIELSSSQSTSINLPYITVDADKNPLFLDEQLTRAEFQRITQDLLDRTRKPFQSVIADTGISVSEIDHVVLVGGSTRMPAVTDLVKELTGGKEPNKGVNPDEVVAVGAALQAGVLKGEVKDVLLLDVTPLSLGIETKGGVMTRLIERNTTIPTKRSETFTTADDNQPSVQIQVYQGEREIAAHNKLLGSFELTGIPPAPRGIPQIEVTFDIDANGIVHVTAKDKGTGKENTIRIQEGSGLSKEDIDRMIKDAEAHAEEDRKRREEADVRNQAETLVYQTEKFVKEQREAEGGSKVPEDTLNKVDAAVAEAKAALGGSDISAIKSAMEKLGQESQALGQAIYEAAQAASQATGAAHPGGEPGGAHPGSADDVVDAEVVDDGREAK

SMILES | inhibition of ATPase activation | ADP level in DnaK and cofactor reactions (HPLC, TP added) | ADP level in DnaK only reactions (HPLC, TP added)
CNC(=O)[C@H]1O[C@@H](n2cnc3c(NCc4ccc(N)cc4)ncnc32)[C@H](O)[C@@H]1O [AB-MECA] | only MECA showed inhibition |  | 
CNC(=O)[C@H]1O[C@@H](n2cnc3c(NCc4cccc(I)c4)nc(Cl)nc32)[C@H](O)[C@@H]1O [MECA, 2Cl-IB-MECA] | showed inhibition |  | 
CCC[C@H](NC(=O)[C@@H]1[C@H]2CCC[C@H]2CN1C(=O)[C@@H](NC(=O)[C@@H](NC(=O)c1cnccn1)C1CCCCC1)C(C)(C)C)C(=O)C(=O)NC1CC1 [TP, Telaprevir] |  | returned the level of ADP to that of reactions containing DnaK only | did not significantly change the level of ADP produced
N#Cc1ccc(COC[C@H]2O[C@@H](n3c(NCc4ccc(Cl)c(Cl)c4)nc4c(N)ncnc43)[C@H](O)[C@@H]2O)cc1 [VER-155008] | only MECA showed inhibition |  | 
